In publication PMC4336329 (PLoS ONE, 2015):
Screen size: about 310,000 compounds; about 2,200 (0.71%) showed an effect of 50% or more. Effects have a minus sign here. The list shows a part of the results.

What follows are compounds tested against human ether-à-go-go-related gene (hERG) potassium channel (human, UniProt Q12809) (assay: primary screen, population patch clamp on CHO cells stably expressing hERG).
human ether-à-go-go-related gene (hERG) potassium channel, sequence (Q12809 whole entry, looked up): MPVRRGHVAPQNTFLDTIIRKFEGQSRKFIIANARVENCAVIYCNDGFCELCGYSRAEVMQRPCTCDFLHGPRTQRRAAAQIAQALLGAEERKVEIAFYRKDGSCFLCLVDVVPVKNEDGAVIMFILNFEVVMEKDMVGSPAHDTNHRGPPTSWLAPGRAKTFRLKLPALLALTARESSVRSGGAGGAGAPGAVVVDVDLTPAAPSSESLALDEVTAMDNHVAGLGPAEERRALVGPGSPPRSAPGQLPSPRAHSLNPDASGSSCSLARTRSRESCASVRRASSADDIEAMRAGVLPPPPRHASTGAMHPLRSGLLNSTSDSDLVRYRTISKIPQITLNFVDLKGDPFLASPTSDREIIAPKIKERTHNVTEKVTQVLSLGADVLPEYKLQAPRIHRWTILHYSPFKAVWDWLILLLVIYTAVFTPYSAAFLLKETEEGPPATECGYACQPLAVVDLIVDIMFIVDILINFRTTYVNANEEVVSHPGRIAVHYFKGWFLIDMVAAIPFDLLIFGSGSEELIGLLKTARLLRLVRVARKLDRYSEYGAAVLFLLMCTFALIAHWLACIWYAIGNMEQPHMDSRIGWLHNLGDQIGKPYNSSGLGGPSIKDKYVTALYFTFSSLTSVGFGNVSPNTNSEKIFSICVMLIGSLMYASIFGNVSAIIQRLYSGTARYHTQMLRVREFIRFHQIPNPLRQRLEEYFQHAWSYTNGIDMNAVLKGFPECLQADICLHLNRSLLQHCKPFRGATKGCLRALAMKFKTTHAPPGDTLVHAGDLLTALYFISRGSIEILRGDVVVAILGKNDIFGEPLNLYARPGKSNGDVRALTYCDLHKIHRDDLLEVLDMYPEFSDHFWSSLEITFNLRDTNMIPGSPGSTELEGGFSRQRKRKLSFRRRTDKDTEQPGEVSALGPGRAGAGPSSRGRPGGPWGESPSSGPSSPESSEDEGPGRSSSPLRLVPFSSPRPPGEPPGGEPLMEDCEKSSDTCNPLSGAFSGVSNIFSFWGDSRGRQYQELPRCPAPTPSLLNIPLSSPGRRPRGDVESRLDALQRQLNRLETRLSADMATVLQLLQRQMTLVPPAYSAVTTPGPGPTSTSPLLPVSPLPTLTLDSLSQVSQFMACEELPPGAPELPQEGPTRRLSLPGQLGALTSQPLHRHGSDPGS

| SMILES | hERG current change (%, negative = inhibition) at 1uM |
| --- | --- |
| Cc1nn(C)c(C)c1N1C(=O)c2cccc3c(N)ccc(c23)C1=O | 4.66% |
| O=C(N/N=C/c1cc(Br)cs1)c1c[nH]c2ccccc12 | 11.7% |
| CCCCN(C)C(=O)c1nc2ccccn2c1CN1CCN(c2ccccn2)CC1 | 8.02% |
| CC(=O)c1ccc(S(=O)(=O)N2CCN(CC#N)CC2)cc1 | 11.3% |
| Cc1ccc(C(=O)CSc2nnc(Cn3nnc4ccccc43)n2C)cc1 | 4.39% |
| Cn1ccnc1SCC(=O)n1c2c(c3ccccc31)CCCC2 | 1.84% |
| CCCNC(=O)COC(=O)c1ccccc1OCC(=O)Nc1ccc(Br)cc1 | 8.14% |
| O=C1/C(=C\c2ccc(Br)o2)Cc2ccccc21 | 8.75% |
| CCOC(=O)c1c(-c2ccccc2)csc1NC(=O)c1cc(S(=O)(=O)N2CCOCC2)ccc1C | 10.4% |
| Cc1ccc(C)c(N2N=C(C(=O)Nc3ccccc3N3CCCC3)CCC2=O)c1 | 13.9% |
| CC1(C)CC(=O)C/C(=N\NC(=O)C2CC2c2ccccc2)C1.I (stereo not shown) | 15.2% |
| Cc1ccc(NC(=O)N2CCCCCC2)cc1C | 9.64% |
| CC(C)Cc1ccc(C(C)C(=O)Nc2ncccn2)cc1 (stereo not shown) | 8.22% |
| O=C(NCCCn1ccnc1)c1sc2cccc(F)c2c1Cl | -19% |
| COc1ccc(CCNC(=O)[C@H](CC(C)C)NC(=O)N2CCn3c2nc2ccccc23)cc1OC | 10.8% |
| O=C(CN1C(=O)NC2(CCCC2)C1=O)Nc1ccc(OC(F)(F)F)cc1 | 5.24% |
| CCOc1ccccc1Oc1c(C)oc2cc(OC(=O)c3ccco3)ccc2c1=O | -0.98% |
| CC(NC(=O)c1ccccc1F)C1CC1 (stereo not shown) | 14.3% |
| CC(=O)N1CCN(c2ccc([N+](=O)[O-])c(NCc3cccnc3)c2)CC1 | -2.86% |
| COc1ccc(OCc2nnc(SCC(=O)NC3CCCCC3)o2)cc1 | 4.24% |
| CCOC(=O)N1CCN(c2nc(-c3cccs3)nc3ccccc23)CC1 | 14.2% |
| CCN(CCCNC(=O)Cn1ncc2c([nH]c3ccccc32)c1=O)Cc1ccccc1 | -2.84% |
| NC(=O)/C=C/C(=O)Nc1ccc(Cl)cc1 | 3.38% |

| SMILES | hERG current change (%, negative = inhibition) at 1uM |
| --- | --- |
| Cc1ccc(S(=O)(=O)Nc2ccccc2C(=O)Nc2sccc2C(=O)NN(C)C)cc1 | -11.7% |
| COCC(=O)Nc1ccccc1C#N | 15.8% |
| CN(CC1CCCN(CCc2ccc(F)cc2)C1)C(=O)CCC(N)=O (stereo not shown) | 5.6% |
| Cc1cccc(Nc2nc(NCC3CCCO3)nc(N)c2[N+](=O)[O-])c1 (stereo not shown) | 0.453% |
| Cc1ccc(NC(=O)N2CCC(C(=O)NCc3ccccc3)CC2)cc1 | -4.16% |
| CC(NC(=O)COC(=O)CNC(=O)c1ccccc1Cl)C1CC2CCC1C2 (stereo not shown) | 8.49% |
| C1CN(c2nc3nonc3nc2N2CCOCC2)CCO1 | 11.5% |
| CCCOc1ccc(NC(=O)CC2C(=O)Nc3ccccc3N2CC(=O)N2CCCC2)cc1 (stereo not shown) | 18.2% |
| COc1ccccc1CNC(=O)COc1cc2c(c3oc(=O)cc(C)c13)CCC(C)(C)O2 | 11.2% |
| NC(=O)c1c(NC(=O)c2ccco2)sc2c1CCC2 | 10.1% |
| COc1ccc(-n2nc3c(c2NC(=O)C(C)C)CSC3)cc1 | 12.9% |
| Cc1ccc(NC(=S)N(CCN2CCOCC2)Cc2cc3cc4c(cc3[nH]c2=O)OCO4)cc1 | 5.67% |
| CC(Oc1ccc(C#N)cc1)C(=O)c1ccc(F)c(F)c1 (stereo not shown) | -7.05% |
| C/C(=N/NC(=O)CNC(=O)c1cccnc1)c1ccccc1 | 1.34% |
| CC(=O)NNc1ncnc2c1cnn2-c1ccc(C)c(Cl)c1 | 4.98% |
| Cc1ccc(S(=O)(=O)n2c3ccc(F)cc3c3nc(C)sc32)cc1 | 3.81% |
| COc1ccc(C2CC(c3ccc4ccccc4c3OC(C)=O)=NN2C(=O)/C=C/c2ccccc2)cc1 (stereo not shown) | 4.25% |
| COc1ccc(N(C(C)C(=O)NN=C2CCCC2)S(C)(=O)=O)cc1 (stereo not shown) | 13.2% |
| CCCC1CCc2c(c3ccccc3[nH]c2=O)O1 (stereo not shown) | 17.2% |
| O=C(c1ccccc1F)N1CCCc2ccccc21 | 11.9% |
| CCCc1cc(-n2cnc3ccccc32)n2c(nc3ccccc32)c1C#N | -6.04% |
| C=CCOc1ccc(C=Nc2cccc(Cl)c2)c(O)c1 | 9.21% |
| Cc1nnc(SC(=O)N2c3ccccc3Sc3ccccc32)s1 | 11.1% |

| SMILES | hERG current change (%, negative = inhibition) at 1uM |
| --- | --- |
| O=C(CSc1nc(-c2ccccc2)ns1)NCC1CCCO1 (stereo not shown) | 8.27% |
| O=C1CC(C(=O)Nc2cccc(F)c2)n2c(nc3ccccc32)N1 (stereo not shown) | 7.93% |
| O=[N+]([O-])c1c(NCCO)cc(N2CCCCC2)c2nonc12 | 14.3% |
| CC1(C(=O)Nc2ccc3c(c2)OCCO3)CC1(Cl)Cl (stereo not shown) | 9.78% |
| Cc1cccc(C)c1NC(=O)C(Cl)C(=O)c1ccccc1 (stereo not shown) | 18.7% |
| COc1ccc(S(=O)(=O)N2CCCC(C(=O)N3CCCCCC3)C2)cc1 (stereo not shown) | 5.41% |
| CCOc1ccc(/C=N/n2c(C)nnc2C)cc1OC | 13.9% |
| Cc1cc(S(=O)(=O)NCc2ccncc2)c(C)cc1Br | 5.84% |
| Cc1ccc(CN(C(=O)Cn2nnc3ccccc32)C(C(=O)NCc2ccco2)c2cccs2)cc1 (stereo not shown) | -0.998% |
| Cc1ccc(S(=O)CCNC(=O)Cc2ccc(Cl)cc2)cc1 (stereo not shown) | 8.46% |
| O=C(CN(Cc1ccccc1F)C(=O)c1ccco1)NCc1ccc(F)cc1 | -11.6% |
| COC(=O)CNc1cc(S(=O)(=O)N2CCCCC2)ccc1Oc1ccc(C(=O)OC)cc1 | 12.8% |
| CN(NS(C)(=O)=O)c1ncc(C(F)(F)F)cc1Cl | 4.04% |
| O=C(CN1C(=O)NC2NC(=O)NC21)N/N=C/c1ccccc1O (stereo not shown) | 21.8% |
| Cc1sc2nc(CN3CCOCC3)nc(N3CCOCC3)c2c1C.O=C(O)C(=O)O | 1.92% |
| CCOC(=O)C(C)Oc1cccc2c(=O)n(CC(=O)Nc3cccc(OC)c3)ccc12 (stereo not shown) | 0.0185% |
| CCN(CCn1cccn1)Cc1nc(-c2ccccc2)no1 | 10.3% |
| COc1cccc(C(=O)NC2=NCCS2)c1OC | -8.97% |
| Cc1ccc(C(=O)N2CCN(c3ccc(NC(=O)Cc4ccccc4)cc3)CC2)cc1 | -3.8% |
| CCN(CC)S(=O)(=O)c1ccc(NC(=O)C2c3ccccc3Oc3ccccc32)cc1 | 7.56% |
| O=C1CC(N2CCCc3ccccc32)C(=O)N1c1ccccc1 (stereo not shown) | 6.45% |
| Cc1ccc(NC(=O)CSC(C)C(=O)NCCc2ccccn2)cc1 (stereo not shown) | 14.4% |
| Br.COc1ccc(C(=O)Cn2c(=N)n(C)c3ccccc32)cc1 | -9.98% |

| SMILES | hERG current change (%, negative = inhibition) at 1uM |
| --- | --- |
| O=C(NC1(C(F)(F)F)N=C2SCCN2C1=O)c1ccccc1 (stereo not shown) | 10.2% |
| Cc1ccc2nc3c(cc(C(=O)NCCCn4ccnc4)n3C)c(=O)n2c1 | 7.52% |
| Cc1cc(Cl)ccc1OC(C)C(=O)Nc1ccc([N+](=O)[O-])cn1 (stereo not shown) | -24.8% |
| Cc1ccc(-n2c(-c3ccccc3)cc(=O)nc2C)cc1 | 3.69% |
| CCN(CC)c1ccc([N+](=O)[O-])c2cccnc12 | -0.843% |
| Cc1ccccc1N1CCN(C2CCCN(C(=O)c3cn4c(C)cccc4n3)C2)CC1 (stereo not shown) | -8.36% |
| COC(=O)C(=C/C=C/N1CCOCC1)C(=O)OC | 13.9% |
| CCCCC(C(=O)NC1CCCC1)N(C(=O)c1snc(C(N)=O)c1N)c1ccc(F)cc1 (stereo not shown) | 8.6% |
| O=[N+]([O-])c1ccccc1/C=C/CN1CCCCC1CO (stereo not shown) | 17.6% |
| Cc1nn(Cc2ccccc2)c(C)c1NC(=O)CCCn1nc(C)c([N+](=O)[O-])c1C | 2.73% |
| CCC(CCC(=O)Nc1cccc(C(=O)O)c1)C(=O)O (stereo not shown) | 2.18% |
| COC(=O)c1cn(Cc2cccc(C)c2)nn1 | 1.48% |
| Cc1sc2ncnc(OCC(=O)NCc3cccs3)c2c1C | 13.2% |
| Cc1ccccc1C(=O)c1cccn1CC(=O)NCc1ccccc1 | 8.28% |
| O=C(c1cccs1)c1no[n+]([O-])c1C(=O)c1cccs1 | -5.95% |
| Cc1ccccc1NC(=O)CSc1nc(N)c(C#N)cc1C#N | 5.28% |
| CCOC(=O)/C(C#N)=C/c1c(N2CCN(CC)CC2)nc2c(C)cccn2c1=O | 2.17% |
| O=C(O)CSc1ccc(S(=O)(=O)N2CCCC2)cn1 | 3% |
| Nc1c(C(=O)CSc2nnc(N3CCOCC3)n2-c2cccc(F)c2)c(=O)[nH]c(=O)n1C1CC1 | 24.9% |
| CCOC(=O)c1c(COc2ccccc2)oc2ccc(O)cc12 | 0.989% |
| COc1ccc(-c2nnc(NC(=O)c3c(OC)cccc3OC)s2)cc1 | 13.7% |
| CNC(=O)C(=O)NCC(c1cccs1)S(=O)(=O)c1ccc(C)cc1 (stereo not shown) | 17.1% |
